# Measured values from patent US20030180808A1, “Drug signatures” (priority 2002, published 2003).
# Test system: liver mRNA expression
# Experiment: Rat liver gene expression on Rat Toxicology LifeArrays, distinction metric
# Conditions: for Distinctiveness: vs. vehicle in males, negative = upregulation
# [1] = clone 700146486 Rat mRNA for acyl-CoA hydrolase
# [2] = clone 700187344 Rat pyruvate dehydrogenase kinase isoenzyme 4 (PDK4) mRNA
# [3] = clone 700199767 Rat mitochondrial 3-hydroxy-3-methylglutaryl-CoA synthase mRNA
# [4] = clone 700247611 Rat Wistar peroxisomal enoyl hydratase-like protein (PXEL) mRNA
# [5] = clone 700296634 Rat cytochrome P450 mRNA
# [6] = clone 700296865 Rat cytochrome P450 mRNA
# [7] = clone 700397284 Rat mRNA for mitochondrial long-chain 3-ketoacyl-CoA thiolase β-subunit of mitochondrial trifunctional protein
# [8] = clone 700481210 Rat mRNA for mitochondrial 3-2-trans-enoyl-CoA isomerase
# [9] = clone 700505778 Rat liver fatty acid binding protein (FABP) mRNA
# [10] = clone 700628567 Rat mRNA for 2,4-dienoyl-CoA reductase precursor
# [11] = clone 700935113 Rat peroxisomal enoyl-CoA: hydrotase-3-hydroxyacyl-CoA bifunctional enzyme mRNA
# [12] = clone 700935253 Rat mRNA for mitochondrial isoform of cytochrome b5
# [13] = clone 701196893 Rat Cyp4a locus, encoding cytochrome P450 (IVA3) mRNA
# [14] = clone 701197528 Rat mRNA for Sulfotransferase K2
# [15] = clone 701444552 Rat cytochrome P450-LA-omega (lauric acid omega-hydroxylase) mRNA
# [16] = clone 701466373 Rat cytochrome P450-LA-omega (lauric acid omega-hydroxylase) mRNA
# [17] = clone 701466951 Rat mRNA for acyl-CoA hydrolase
# [18] = clone 701469162 Rat peroxisomal enoyl-CoA: hydrotase-3-hydroxyacyl-CoA bifunctional enzyme mRNA
# [19] = clone 701507855 Rat mRNA for cytochrome P452
# [20] = clone 701512110 Rat peroxisomal membrane protein Pmp26p (Peroxin-11)
# [21] = clone 701531239 Rat carnitine octanoyltransferase mRNA
# [22] = clone 701606788 Mouse peroxisomal long chain acyl-CoA thioesterase Ib (Ptelb) gene
# [23] = clone 701646795 Rat acyl-CoA oxidase mRNA
# [24] = clone 701826047 hypothetical protein Rv3224
# [25] = clone 701880740 Unnamed protein product
SMILES,Distinctiveness [1],Distinctiveness [2],Distinctiveness [3],Distinctiveness [4],Distinctiveness [7],Distinctiveness [8],Distinctiveness [9],Distinctiveness [10],Distinctiveness [11],Distinctiveness [12],Distinctiveness [14],Distinctiveness [17],Distinctiveness [18],Distinctiveness [19],Distinctiveness [20],Distinctiveness (clone 701512411 Incyte EST),Distinctiveness [21],Distinctiveness [22],Distinctiveness [23],Distinctiveness [24],further results
"CCOC(=O)C(C)(C)Oc1ccc(Cl)cc1 [Clofibrate, clofibrate]",−2.20,−16.42,−9.90,−10.02,−4.48,−11.57,−0.23,−2.16,−4.82,−4.98,−29.46,−7.60,−5.72,−11.54,−8.16,−6.28,−7.50,−6.91,−8.02,−5.56,Distinctiveness [5]: −15.64; Distinctiveness [6]: −17.07; Distinctiveness [13]: −15.66; Distinctiveness [15]: −15.09; Distinctiveness [16]: −23.12; Distinctiveness [25]: −1.20
CC(C)OC(=O)C(C)(C)Oc1ccc(C(=O)c2ccc(Cl)cc2)cc1 [Fenofibrate],−10.45,−13.16,−8.72,−16.48,−14.54,−19.18,−14.06,−8.98,−10.93,−13.15,−24.19,−9.93,−7.82,−32.35,−10.83,-11.10,−18.56,−7.74,−10.07,−12.66,Distinctiveness [5]: −19.23; Distinctiveness [6]: −25.96; Distinctiveness [13]: −21.68; Distinctiveness [15]: −22.11; Distinctiveness [16]: −24.45; Distinctiveness [25]: −17.88
"Cc1ccc(C)c(OCCCC(C)(C)C(=O)O)c1 [Gemfibrozil, gemfibrozil]",,,,,,,,,,,,,,,,,,,,,"number of genes induced that were not induced by other PPARα agonists (rat liver, 8 of the 13 involved in cholesterol and fatty acid biosynthesis): 13 genes"
CC(C)(C)CC(C)(C)c1ccc(O)cc1 [OP],−2.66,−0.19,1.97,8.18,1.46,2.16,3.92,2.72,1.40,1.37,1.16,−1.06,1.22,1.43,1.31,0.96,3.56,1.91,0.81,1.36,Distinctiveness [25]: 3.42
